Measurements reported in paper PMC10726135.
The list shows a part of the results. At the low end of the ranking, values are background and their order means little. Measured with an extract: partners may take part in the binding.

Target: T1, HNF4alpha8 (COS-7 nuclear extract) (UniProt P41235-5)
T1 sequence: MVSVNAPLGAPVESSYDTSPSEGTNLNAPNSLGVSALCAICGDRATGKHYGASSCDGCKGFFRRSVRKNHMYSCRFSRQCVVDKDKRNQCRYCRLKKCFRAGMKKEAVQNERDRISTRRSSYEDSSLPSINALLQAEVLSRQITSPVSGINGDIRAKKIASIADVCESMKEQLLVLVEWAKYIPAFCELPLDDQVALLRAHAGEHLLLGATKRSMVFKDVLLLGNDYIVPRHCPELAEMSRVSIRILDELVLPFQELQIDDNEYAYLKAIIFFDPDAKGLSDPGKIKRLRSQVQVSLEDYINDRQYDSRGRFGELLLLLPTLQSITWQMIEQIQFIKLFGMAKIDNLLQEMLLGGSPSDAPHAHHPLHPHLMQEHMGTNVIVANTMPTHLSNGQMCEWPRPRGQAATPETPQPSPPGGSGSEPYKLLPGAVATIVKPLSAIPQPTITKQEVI
Assay: protein-binding microarray
Conditions: COS-7 nuclear extract on double-stranded Agilent 4x180k PBM; binding buffer, salt, pH and temperature not given; high values mean tight binding; double strand, one strand shown; sequences stand for … in …GCCTAGGGAGATTAGAGTATCGGTCGA

| Sequence | binding signal (log2 normalized intensity) |
| --- | --- |
| GGCTGTTTGGGAACCGTTAGCAACCGGAAG | -1.27 |
| TCACAGGAATGTTGGCAGCATCGTGTTGGG | 0.111 |
| GTAGGAAGGCTTTGAAGTCTGGTGGCAAGT | -0.389 |
| CTCTCCTGAGGCAAGTCTCTTTTAGGCTGT | 0.363 |
| CACTAATTAACTGAGCCTCAGAACCATTTG | -1.31 |
| CATACTCAAAGAATTTAACACCAGATAAAC | -1.2 |
| GCCTTTAGGGCCCCCTGTGATTACTTCCAC | 1.67 |
| GAAGCTGGTAGCATGGCTCAGTCCAAGTCC | 0.896 |
| CAGTGAGACAGAAGTAAAACAGGTAGAGAG | -1.36 |
| ATATACTGTGTATACAAAGATCAGTGTACT | 1.41 |
| TGGGGACGCCCACTGCTTTGTTCCCTGGCT | -1.42 |
| ATCTCAAATAGCTGGGTCTCACTCTGACCC | 3.93 |
| CTGCTGGTTTTTGTCAAAGATAGTTGTAGT | 1.62 |
| CTTCAGCCTCCCGAGTAGTTGGGTCAACAG | 2.04 |
| CAGGGTCGGAATGTCTGGGCAAAGGGGAGG | -1.16 |
| AGTGGCAACCCTTGACCCCAGTAACAAAGG | 5.17 |
| GTTAGGAAACACTCTGTTTGTAAAGTCTAC | 0.618 |
| ATAGCTGTTCATTAGACTCAGGGAACTCCC | 0.305 |
| CAAACAGACCTCCCCCAACTTACTTAGTGG | 2.07 |
| AGGCTCCCTGCTGCGGAGAGTTCCCTTGGA | -0.846 |
| GCAATTACTCAATAACCACATGAATACACA | -1.18 |
| GCAGGCAGGGACTTTGGCCCACGGTCCTTT | 3.51 |
| GGGGTCTAGAACAGCTCCTTTGAAGCTTCG | -1.3 |
| AAACTGAGATCTAAGCGATAAGGAGGAAGG | -1.34 |
| GACCGGTTCCGCGGTCCGCAGCGCTGGTGG | -1.24 |

| Sequence | binding signal (log2 normalized intensity) |
| --- | --- |
| GGTAATCACCAAACTTCACAATGGGCCCCA | -1.37 |
| GTCTAACCGCAGCAAGACACTTCCAGCCAA | -1.3 |
| ATAATGCCAGGCAGGAAGGAGCCTGCTTTG | -1.33 |
| CAGTATTGATGTGAGGGTAGGAGCCTAGCT | -1.34 |
| AAATGTGAATGGACTCTGCCCTTAGCAGTG | 5.06 |
| CACCAGAGGGAACGCCCGACGCGAAGGCAG | -1.08 |
| AACTGTCCAGGCTGCACAGTGGGGAGGGCA | -1.31 |
| GACCTTTCTTTATGGACCTTGTCCCTGGAT | 5.2 |
| CACTTCTCTCTCCAAGGCACAGAGAAGAAT | -1.27 |
| AATAGGGGCTGGGTAAAATGAGAATGAGAC | -1.21 |
| TTGCAGTGGCAAGGCAAAAGAGACAGGACT | -1.33 |
| AACCTCCTCCAGGTTCTCATACCTTCTGCT | -1.38 |
| AGTTGTTGTGAGAGTGAGGTGACTTGTCCT | 1.74 |
| TAAGATTTGGAAAATATTGCCAATATCTGC | -1.32 |
| CTGCTGGCTGAGCATCACCAGTGCAGCTGA | -1.28 |
| GAAGAAAACAATGACCTCTGCACCCTTCCC | 5.13 |
| TCTGGTAAATTTCTAACACTCCCCAGGACA | 2.81 |
| TCACAATGGGGCATGACTTGTTATCACCTG | 0.285 |
| CCTTTGTCTCCAGGCAAACTACAGTTTCTG | -0.771 |
| AGAGCAGGGCCCGAGGCCTTGAGCATACAA | -1.22 |
| AGGAAGCATCCTATAGGCCTATAATTAGGT | -1.07 |
| GTCCATCCTGTCTCACCAGACCAAGAGCTT | -1.04 |
| CTGCTCTGTTTTCTTTCGGTCACCCACACA | 1.59 |
| TCTCTTCTTCCCCTCCTTCAGGTCAAGAGG | 2.95 |
| TCCTCTGGATACCCTTCCCCCCAAGGCTTC | 5.26 |

| Sequence | binding signal (log2 normalized intensity) |
| --- | --- |
| TAGGCCAGGCGGAGCACACCAGGCCCTCGG | -1.13 |
| AATGATCTTGGCTGCTTTAGACATGAGATA | -0.654 |
| CTGCCTCTTCAGGAGGCACTGATAAGCGTA | -1.34 |
| GGACAGGAGCTCATACCTCTTACCAGATAG | -1.28 |
| AGCGGGGGACCGAGAGCCGCCGCCGTGGGA | -1.23 |
| TCCCCTGACAGCATGTTCGGCTGAGACCTG | 0.595 |
| TGGTGCAAATACCATCCCCAGAGCCGGAGC | 3.04 |
| AAATACACAGGTAAACATTTGCCTTTAGGG | -0.993 |
| TTGGTGACCAGTCTGCCTGACTCCAGAGTC | -1.26 |
| AAGCAGGACAGCAGAGTGGAGGCCAGCGCC | -1.4 |
| GAATATTCAGATATTCCTGGAATGACAAGA | 0.948 |
| AAAGGTCATTTCTGCTTGCAACCAAAGGAG | 1.78 |
| AGAGTTAGGGCCTTGCTATGGAGTGGACTT | 3.91 |
| GTCCAGACACAAAGAGACAAAGCTTTGAAG | -1.07 |
| CGTATTATCTTATCTCCTCTGTAGGGCAGC | 1.12 |
| TAGCTTGGTGCAGGGGCGGGGCCGCGCGTC | -1.31 |
| GTGTTCCAGAGCCTCCAAAGTCCGCTTGCC | 1.73 |
| CTCCACTCTCATAAAAGAGGCCAATTTCTT | -0.623 |
| ATAGTTTGACTTTCTCTCTTCCTATTCAGA | -0.919 |
| TCTGCCATCTACTAAGTGCTTAGTATGTGC | 0.009 |
| TGAGACTTTCCTGTTGGGGAGCAAAGGTTA | 6.1 |
| CATAATTGCAAAATCCTTAGCAAATAGAGA | -1.46 |
| AGGTGTTCTTTCCCTCCAGCCCACTTACCA | 1.97 |
| TCTGGATGGCTGAGCTGTAAGGACATAAGC | 0.241 |
| TTGGAAAAAAAAAAAAAAAAAAGAACACAG | -1.27 |

| Sequence | binding signal (log2 normalized intensity) |
| --- | --- |
| GCATGCCATTTTGCAATTGACAAATGGCTT | -1.28 |
| ACTGCAACCTGATAAGATTTTAGAAGTCAC | -1.21 |
| GTGTCAGAGAAGGAGCCAGAGCTTTGGGAA | -1.34 |
| CATACAGGCCAGCTGTCTGGTTTGACCTTA | 5.8 |
| GGAAACTCCATTTCCTTCTAGCTCCCCAAT | 3.27 |
| TGCTTGTCTTGGTTGTAGAAGGCTTAAGAT | 1.16 |
| CAGGATTACTATAGGTTCTACTCTCCCCAG | 1.62 |
| TGGGAACTGCGGACATAGCTTGCCACAGCA | -1.34 |
| ACCAGACAAGATCAATCAATTTACCTCTGC | -1.52 |
| CCCAGTGCTCTCTCCTGCATTCCTGTCCAC | 0.684 |
| CCTCCCCCCTTGGCTACATGTTTGTCTTTC | 2.91 |
| ACATTGTCCATCACCTGGCTCTGAAAAACA | -1.32 |
| TTCTGCTTCTTCTCATTCTTGGAATAAGCA | -1.25 |
| AGAGGTGAGAGCAGAATGAGCAAGGTGGGT | -1.12 |
| CAGGATCCAAGATCCAACTCTGAAGATTCA | -1.23 |
| ACTGATAAGGTTCCAGCAAAGAGATTAGGA | -1.41 |
| CTTTCTTTGTCTGTGTAGACTCATCTGGTG | 1.89 |
| ACACAGCTTGGAGCTCCTTGTGAGCAGGAT | -1.29 |
| CGGTTCCGGGCGGCAGCACAAGGCGGTAGC | -1.2 |
| AAGGGTAAAGATTATGAACTAATTTGTCTT | -0.728 |
| AGCTTCAAAGGACAGGCTGACTATCACTGG | -1.27 |
| AGATGTAAACATCATTCACGTGCCTGAGAT | -0.397 |
| TCGGTTTTCAAATGAACCCGGCAGGCGGGA | 2.18 |
| TCTAGAAGAGGTTAAAGACCTTTGGGTAGG | 2.82 |
| AACCAAAGGATTATTACATGTTTACCCACA | 0.782 |

| Sequence | binding signal (log2 normalized intensity) |
| --- | --- |
| CTGCAGAGGGACTGACTCCCTTTTCAACAA | -1.31 |
| CATGTGGGTCCAAAGAACATTGCATTCCTT | 2.09 |
| GGGCAAATGGAAGAATCACAGTGTGGGGCA | -0.0916 |
| TCAGAAAACCCACGCCCACCCTATTGATGC | 2.72 |
| ACCCAGGTATGACAAGCATGCACTGGGGTT | -0.97 |
| TGGTAAGTGCAAGGCCCAGCTAGAAGCAGT | -1.28 |
| AGTTTTCTCTGTCCCAAGAGCAAGAAGGTC | 1.62 |
| ACTCAGGATACCTAAGCCCCATGCTGATAA | 1.62 |
| ACATTGCAAATCTCTTCTTCCTTTCTATCA | -0.0142 |
| AAGGGGGGTGGGGAGGCAGGTGGCTACATG | -1.22 |
| TGCCATTTATCAGTGATTTCTCTTCCATCT | 0.611 |
| TTTGGACCTGGCCTGCGGGGTCAGGCCGTG | 2.71 |
| TGCAAGGTTCTCTCTTCTTCCCCTCCTTCA | 2.29 |
| TTGAGAAGCAGGAGCATGGGGGATGGGGCC | -1.44 |
| CTCCCAGAGGTCGATCTGATCTTAAGTTGT | 1.72 |
| TCAAGACCGATTGTGTTTTAGGCAAACATT | 0.131 |
| GCCCAAGATAACCTCCCCTCTGACCAGAGA | 2.01 |
| TGAAGGCAGGGCTTTTCCATTGACAGTCCA | -0.79 |
| GTACAGGCAGTGACTGGACCACGATCAGCC | -1.36 |
| TGAAATTCAACAGAACTGTTTGAGGGTAAA | -1.19 |
| CCTGGGGCCTTGGGCCACCTGAGACAGTTT | -1.3 |
| TGATAAGCAGTGTGGACTTTTTCCTGAGGG | 1.42 |
| GGGAGTTGGGGTCCAAAGTCTTTGTTCCTA | 4.49 |
| AATTCTTAAGCCAAAGTCCAAGTTGGTGAG | 3.81 |
| AGCACGATGAATAGGGACGTTCTACTTGTT | -0.192 |

| Sequence | binding signal (log2 normalized intensity) |
| --- | --- |
| TCAAGTCATAACTGGATGGTGCCTATTTGT | 1.28 |
| CAAACAATGAGAGGCAACATTCCCAGTTAT | -1.28 |
| CTCCAGGGACTGAGGGAGGGAGGAGGGACT | -1.37 |
| CTCCAAGGGTATAGGATAAGGAATGAAGCA | -1.18 |
| ACTCCGGGGAGCAGGCAGAGGAACAGAGGG | -1.3 |
| CTGTTCACATGCTAATTACGGGCAGAGCTG | -0.568 |
| TTCCTTATCTGGAATTCCTCCTCCTGTTTG | 0.85 |
| TCTCAGTGGGTGGGAAAGGGTGCTCCAGGC | -1.25 |
| TAAGATACGAAGGGTTTAAAGGGCAGAAGA | 2.39 |
| GGCCTAGACACAGACTCAAGTGAGGAAGGA | -1.12 |
| ATGTTTCCTCTCCCAGCCCCTAGCCCTAAG | 3.3 |
| CGCTGCTGCAGAGCAAAGCTGATAAAGAGG | -1.24 |
| CCTCAAGAGACAACCAAGGTTGCAGAGTGT | -0.349 |
| AGACATAACTCAAACATCTGACAGAGATAA | -1.35 |
| AGTCTTGGCCCCACCGGTCACGACCCCGCT | 3.94 |
| TTAATCACAGGATTTAAAGAATTCCAGACA | -1.38 |
| TCACACAAATGGATCTTTCTTCAAAAAGAG | -0.0678 |
| CAAGATTAGTGGGAAAGCTATTGCTCTGCA | -1.34 |
| ACCTGTATTAGGAAATTGTCAGTGCCCTAT | 2.62 |
| AATGGGAGGAACTCCAGAACCAAAGTCCTA | -1.19 |
